# According to PubChem BioAssay AID493208 (National Center for Advancing Translational Sciences (NCATS), 2011):
# Screen size: about 44,000 compounds; about 340 (0.77%) were called active. Not shown: some 5% with an inconclusive outcome. Calls come from the whole dose curve; as a rule, active = well fitted inhibition curve with a large enough effect; inconclusive = small, poorly fitted or top-dose-only effect; inactive = flat fitted curve, though single readings scatter. This is one part of the list.
# Assay: Acumen qHTS Assay for Inhibitors of the mTORC1 Signaling Pathway in MEF (Tsc2-/-, p53-/-) Cells: Sytravon; note: nearly all actives have a fitted effect of over 50% in size;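 for activity change, negative = inhibition: plate controls were DMSO for no effect and rapamycin for full effect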
# Conditions: phospho-rpS6 immunofluorescence/PI, 24 h; series mostly up to 38.3 µM; activity change, negative = inhibition: at the top concentration
# Summary of the method: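 Compounds act on Tsc2-/-, p53-/- fibroblasts carrying an empty vector for 24 h before fixation and dual staining for phospho-S6 and DNA (propidium iodide). Values are percentages of cells above a rapamycin-defined pS6/PI threshold.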
# Potency is the fitted concentration of half-maximal effect.
Structure (SMILES),"activity change, negative = inhibition",Potency
CN(C)c1oc(-c2ccc(COc3ccccc3)o2)nc1C#N,inactive: -12.5%,
COc1ccc(N2CCN(S(=O)(=O)CCNC(=O)c3cc(=O)c4ccccc4o3)CC2)cc1,inactive: 4.92%,
COc1cc(NC(=O)Cn2ccn(-c3cc(C)cc(C)c3)c(=O)c2=O)cc(OC)c1,inactive: 10.5%,
Cc1cc(C)cc(NC(=O)CSc2nc(=O)[nH]c3c2CCC3)c1,inactive: -10.7%,
CC(C)CN(CCNC(=O)c1cn(C)c2ccc(S(=O)(=O)N3CCCCCC3)cc2c1=O)CC(C)C,inactive: -0.443%,
Cc1cc(C)cc(NC(=O)CSc2nc3ncccc3[nH]2)c1,inactive: -13.1%,
Cc1ccc(NC(=O)C(=O)NCC(c2ccc3c(c2)OCO3)N2CCN(C)CC2)c(C)c1 (centres undefined),inactive: 0.472%,
Cc1ccc(NC(=O)C(Cc2ccccc2)NS(=O)(=O)c2ccc3c(c2)CCC(=O)N3)cc1 (centres undefined),inactive: 1.18%,
CS(=O)(=O)c1cccc(-c2nnc(NC(=O)c3ccc4c(c3)OCCO4)o2)c1,inactive: 2.22%,
CCOC(=O)N1CCC(NC(=O)c2cnn(-c3ccc(C)cc3C)c2C2CCN(C(=O)OC(C)(C)C)CC2)CC1,inactive: 1.88%,
CC(=O)Nc1cccc(Nc2nc3ccccc3n3c(C)nnc23)c1,inactive: 7.84%,
O=C(CN1CCCN(Cc2ccc(F)cc2)S1(=O)=O)Nc1ccc2c(c1)OCCO2,inactive: 0%,
CC(=O)c1nn(-c2ccc(OC(F)(F)F)cc2)nc1Nc1ccccc1,inactive: 4.91%,
CCc1nn(CCCC(=O)NCc2ccc(C)cc2)c(=O)c2cc3occc3n12,inactive: -8.1%,
CCCN(CCC)CCCNC(=O)Cn1ncc2c3ccccc3n(Cc3ccccc3F)c2c1=O,inactive: -12%,
CCOc1ccccc1N(C)C(=O)Cn1nc(Cc2ccncc2)c2ccccc2c1=O,inactive: -1.74%,
COc1ccccc1C(=O)OCc1cc(=O)n2nc(-c3cccs3)sc2n1,inactive: -14%,
CCOc1ccc(-c2cc(NC(=O)Nc3ccc(Cl)cc3)c(C(=O)OC)s2)cc1,inactive: 0.381%,
CCCSc1ncc(Cl)c(C(=O)N(Cc2cccc(Cl)c2)C2CCS(=O)(=O)C2)n1 (centres undefined),inactive: -1.31%,
COc1ccc(OC)c(NC(=O)c2cnc(N3CCCCC3)c3ccccc23)c1,inactive: -0.877%,
CCOC(=O)c1c(NC(=O)CCCOc2ccc(C(C)(C)C)cc2)sc2c1CCCC2,inactive: 4.98%,
Cc1cccc(C(c2sc3nc(-c4ccco4)nn3c2O)N2CCN(c3ccccc3F)CC2)c1 (centres undefined),inactive: 0.108%,
CCOC(=O)C1CCCN(S(=O)(=O)c2cc(Br)cc3c2N(C(C)=O)CC3)C1 (centres undefined),inactive: 0.584%,
COC(=O)c1ccc(NS(=O)(=O)c2ccc3[nH]c4c(c3c2)CCCC4)cc1,inactive: 0.715%,

Structure (SMILES),"activity change, negative = inhibition",Potency
CCC(=O)N1CCc2cc(S(=O)(=O)NCCC(=O)NCc3ccc(C)cc3)ccc21,inactive: -14.7%,
Cc1nn(-c2ccccc2)c2sc(C(=O)Nc3ccc(Br)cc3)cc12,inactive: -7.85%,
O=C1COc2ccc(-c3cc(-c4ccccc4)c4c(n3)-c3ccccc3OC4)cc2N1,inactive: -2.93%,
COc1ccc(-c2cc3c(=O)n(CC(=O)Nc4cc(F)ccc4F)ccn3n2)cc1OC,inactive: 0%,
O=C(NCCc1ccc(Cl)cc1)c1ccc2c(c1)N(Cc1ccc(F)cc1)C(=O)CS2,inactive: -10.2%,
CN(C)c1ccc(-c2nc(-c3cccs3)c(-c3cccs3)[nH]2)cc1,inactive: -9.2%,
COc1cccc(CNC(=O)CCCn2ncn3c(cc4occc43)c2=O)c1,inactive: 1.72%,
CCCn1c(SCC(O)c2ccccc2)nc2ccccc21 (centres undefined),inactive: 2.11%,
Cc1ccc(-c2noc(-c3ccccc3NC(=O)C3CC(=O)N(c4ccc(C)cc4)C3)n2)cc1 (centres undefined),inactive: 2.76%,
Cc1ccc(C(=O)NCC(c2ccco2)S(=O)(=O)c2cccs2)cc1C (centres undefined),inactive: -2.78%,
O=C(Oc1ccc(F)cc1)c1nc(SCc2ccc(F)cc2)ncc1Cl,inactive: -3.59%,
COc1ccc(NC(=O)CCS(=O)(=O)c2ccc3c(c2)oc(=O)n3C)cc1OC,inactive: -4.83%,
COC(=O)c1sc(-c2ccccc2)cc1NC(=O)Nc1ccc(Cl)cc1,inactive: -5.15%,
CC1=C(C(=O)NCc2ccccc2C)C2(CCCCCC2)OC1=O,inactive: 0.215%,
CCCCN(Cc1cc2ccccc2[nH]c1=O)C(=O)c1cccc(Cl)c1,inactive: 4.14%,
Cc1ccc(-c2nc(SCC(=O)NCC3CCCO3)c3c(=O)n(C)c(=O)n(C)c3n2)cc1 (centres undefined),inactive: -2.11%,
Cc1cc(OCCn2c(CCNC(=O)C3CCCCC3)nc3ccccc32)ccc1Cl,inactive: 0%,
CCOC(=O)CSC1=Nc2ccccc2C2=NC(CCC(=O)NCc3ccc(OC)cc3)C(=O)N12 (centres undefined),inactive: 0.0823%,
Cc1ccccc1N1CCN(S(=O)(=O)c2ccccc2)CC1,inactive: -9.95%,
Oc1c(C(c2ccccc2F)N2CCN(c3ccccc3F)CC2)sc2nc(-c3ccco3)nn12 (centres undefined),inactive: -0.615%,
COc1ccc(C)cc1NS(=O)(=O)c1ccc2c3c(cccc13)C(=O)N2,inactive: 2.36%,
COc1ccccc1Cn1ccn(Cc2ccc(C)cc2)c(=O)c1=O,inactive: -10.1%,
CCCc1cc(N2CCN(c3cccc(C)c3C)CC2)n2cnnc2n1,inactive: 4.01%,
COc1ccc(CNC(=O)CCC2N=C3c4ccccc4N=C(SCc4ccccc4F)N3C2=O)cc1 (centres undefined),inactive: 2.36%,

Structure (SMILES),"activity change, negative = inhibition",Potency
Cc1cc(C)c(NC(=O)CSc2nccn2-c2cccc(Cl)c2)c(C)c1,inactive: -3.65%,
COc1cccc(-n2c(-c3ccccc3F)nc3c(cnn3-c3ccc(C)cc3)c2=O)c1,inactive: 1.17%,
CCOC(=O)C(Cc1ccccc1)NC(=O)CCc1c(C)nc2nc(C)nn2c1C (centres undefined),inactive: -11.4%,
Cc1ccccc1OCc1nc2c3cnn(-c4ccccc4F)c3ncn2n1,inactive: 2.31%,
COCCNC(=O)CSc1nc2cc3c(cc2c(=O)n1CCCC(=O)NCc1ccc2c(c1)OCO2)OCO3,inactive: 0.815%,
O=C(NC1CCCC1)c1ccc2c(=O)n(Cc3ccccc3)c(SCc3cccc([N+](=O)[O-])c3)nc2c1,inactive: 0.275%,
CCc1ccc(OCC(=O)Nc2cc(-c3ccc(C)cc3)no2)cc1,inactive: 1.47%,
COc1ccc(CNC(=O)CSc2ncc3c(n2)-c2cc(Cl)ccc2N(Cc2ccccc2)S3(=O)=O)cc1,inactive: -5.87%,
Cc1ccc(Cl)cc1N1CCN(C(=O)Cn2c(-c3cccs3)cc3cc(F)ccc32)CC1,inactive: 0.455%,
CCOC(=O)Cn1c(=O)cc(C(F)(F)C(F)(F)F)c2c(C)nn(CC)c21,inactive: -11%,
COC(=O)c1sccc1S(=O)(=O)N1CCN(c2ccc(C)cc2C)CC1,inactive: -9.8%,
CCOc1ccc(CNC(=O)C2CCN(C(=O)N3CC(CC)Oc4ccccc43)CC2)cc1 (centres undefined),inactive: -3.17%,
Cc1c(Cl)cccc1NC(=O)N1CCOc2ccccc21,inactive: -1.73%,
Cc1ccc(OCC(=O)Nc2ccc3nc(SCC(=O)Nc4ccc(C)cc4C)sc3c2)cc1,inactive: 0.991%,
CC(C)(C)c1ccc(C(=O)NC2(C(F)(F)F)NC(=O)N(CCc3ccccc3)C2=O)cc1 (centres undefined),inactive: -5.24%,
COc1cccc(NC(=O)CSc2ncc3c(n2)-c2ccc(Cl)cc2N(C)S3(=O)=O)c1,inactive: 0.43%,
CCOc1ccccc1NC(=O)C(=O)NCCc1sc2nc(-c3ccc(OC)cc3)nn2c1C,inactive: -0.767%,
Cc1ccc(NC(=O)NCCOCCn2c(=O)oc3ccccc32)cc1C,inactive: -1.65%,
CCOc1ccccc1NS(=O)(=O)c1ccc2[nH]c3c(c2c1)CCCCC3,inactive: -10.1%,
COc1ccc(S(=O)(=O)N(CC(=O)Nc2cc(C)ccc2OC)Cc2ccccc2)cc1,inactive: 3.12%,
COC(=O)c1ccc(NC(=O)CN2CCN(S(=O)(=O)c3ccc(Br)cc3)CC2)cc1,inactive: 2.99%,
Cc1ccc(Cn2c(=O)n(-c3ccc(C)cc3)c(=O)c3c2c2cc(C)ccc2n3C)cc1,inactive: -1.48%,
Cc1c(-c2ccc(Cl)cc2)c(=O)oc2c(CN3CCN(CCO)CC3)c(O)ccc12,inactive: 4.01%,
CCOc1ccc(CCNC(=O)c2cc3c(=O)n(C)c4ccccc4c3n2C)cc1OCC,inactive: 0.488%,

Structure (SMILES),"activity change, negative = inhibition",Potency
CCCN(CCC)CCCNC(=O)C1CCN(c2nc3ccc(CC)cc3s2)CC1,,active: 16.5 µM
O=C(CSc1cn(CC(=O)N2CCCCC2)c2ccccc12)NCc1ccc(F)cc1,inactive: -1.42%,
N#C/C(=C\c1cccc(F)c1)c1nc(-c2cc3c(ccc4ccccc43)oc2=O)cs1,inactive: -3.64%,
CCOc1cc(C2c3c(oc4cc(C)cc(C)c4c3=O)C(=O)N2CCO)ccc1O (centres undefined),inactive: -4.17%,
Cc1ccc(NC(=O)Nc2ccc3nc(N4CCN(C)CC4)cc(C)c3c2)cc1F,inactive: -16.7%,
CSc1cccc(NC(=O)C2CCCN(C(=O)c3cnn(-c4ccc(F)cc4)c3-n3cccc3)C2)c1 (centres undefined),inactive: -1.13%,
O=C(NCc1ccc2c(c1)OCO2)c1ccc2c(c1)N(Cc1cccc(Cl)c1)C(=O)c1ccccc1S2=O (centres undefined),inactive: 2.08%,
Cc1c(Cl)cccc1NC(=O)C1CCCN(c2nnc(-n3c(C)ccc3C)s2)C1 (centres undefined),inactive: 0.582%,
O=C(NCC(c1ccc2c(c1)OCO2)N1CCN(c2ccccc2)CC1)C(=O)Nc1cccc(F)c1 (centres undefined),inactive: -7.14%,
Cc1ccc(CSC2=Nc3ccccc3C3=NC(CCC(=O)NCc4cccs4)C(=O)N23)cc1 (centres undefined),inactive: -3.37%,
CCN(CCCNC(=O)c1ccc(Sc2ccc(F)cc2)c(NC(C)=O)c1)c1ccccc1,inactive: 11.4%,
COc1ccc(CNC(=O)Cn2c(=O)nc(-c3ccccc3F)c3cc(Cl)ccc32)cc1,inactive: 0%,
CCN(CC)C(=O)CSc1nc2cc3c(cc2c(=O)n1CCCCCC(=O)NCc1ccc(OC)cc1)OCO3,inactive: 1.78%,
Cc1ccc(F)cc1NC(=O)Cn1c(=O)nc(-c2ccccc2F)c2cc(Cl)ccc21,inactive: 0%,
COc1ccc(C2=C(C)C(=O)N(Cc3ccc(C(=O)Nc4cccc(F)c4)cc3)S2(=O)=O)cc1,inactive: -1.3%,
CC1CCCN(c2nc3c(S(=O)(=O)c4ccc(C(C)C)cc4)nnn3c3ccsc23)C1 (centres undefined),inactive: -2.72%,
COc1ccc(-c2csc(-c3nc(-c4ccc(Br)s4)cs3)n2)cc1F,inactive: -4.56%,
COc1ccccc1C(=O)NCc1nnnn1-c1ccc(C)c(C)c1,inactive: -16.6%,
CCC1CCCCN1CCCNC(=O)c1c(O)nc2ccccn2c1=O (centres undefined),inactive: 0.247%,
CCCC1=Nc2cc(C(=O)NCCc3ccc(OCC)cc3)ccc2Sc2ccccc21,inactive: -23.3%,
COc1cc2c(-c3ccccc3O)nc3c(c(C)nn3-c3ccccc3)c2cc1OC,inactive: -1.72%,
COc1cccc(CN2C(=O)c3ccccc3Sc3ccc(C(=O)NCCc4ccc(C)cc4)cc32)c1,inactive: -0.336%,
